Experimental data as given in the BET-seq Pho4 binding data (Le et al. 2018).
This is one part of the list. Values were computed here from the reads of four pooled replicates and scatter widely.

Target: T1, Pho4 (S. cerevisiae) (UniProt P07270)
T1 sequence: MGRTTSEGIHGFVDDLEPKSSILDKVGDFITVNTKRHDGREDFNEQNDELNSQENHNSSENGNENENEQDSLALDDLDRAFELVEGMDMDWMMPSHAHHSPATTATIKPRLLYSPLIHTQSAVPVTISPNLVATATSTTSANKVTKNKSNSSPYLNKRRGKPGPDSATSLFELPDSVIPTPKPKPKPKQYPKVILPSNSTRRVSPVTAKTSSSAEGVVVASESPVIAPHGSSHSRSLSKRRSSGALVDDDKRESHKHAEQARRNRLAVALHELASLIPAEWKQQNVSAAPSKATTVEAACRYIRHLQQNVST
Assay: relative binding free energy (BET-seq); higher = weaker binding
Conditions: reference: library average

Relative binding free energy, -0.12 kcal/mol:
GGAGGCACGTGTTAGG
GCGGACACGTGGGTCG
ATGGCCACGTGTTGTT
TGTGACACGTGGGGAT

Relative binding free energy, 0.09 kcal/mol:
TGCGGCACGTGAAGGT
CATTACACGTGATGTG

Relative binding free energy, -0.02 kcal/mol:
CCTGTCACGTGGAGGT
AACATCACGTGGTGGT
TAAATCACGTGTTGTA
ATCTTCACGTGGGGTG

Relative binding free energy, 0.34 kcal/mol:
AGTTTCACGTGATGGT
AGAGTCACGTGAGAGG
TGACTCACGTGAAGTG

Relative binding free energy, 0.3 kcal/mol:
TCTGTCACGTGAGAAT
AGGGTCACGTGAGAGG
AAAATCACGTGATGTT
GAAAGCACGTGAGGTT

Relative binding free energy, 0.22 kcal/mol:
CGTGTCACGTGTAAGG
CGTTTCACGTGTAATT
CGGTTCACGTGGCGTG
GTACTCACGTGGTGGA
GTTTTCACGTGTTGAG
CAGCACACGTGTGGTA
TTTTTCACGTGTTCTC

Relative binding free energy, 0.31 kcal/mol:
TGGCTCACGTGATATT
TTCATCACGTGAGGGA
TGTTTCACGTGTTTCC

Relative binding free energy, -0.18 kcal/mol:
GTGGGCACGTGTTCCG

Relative binding free energy, -0.2 kcal/mol:
TGAAGCACGTGGGTTG
TAAGGCACGTGGGGTG

Relative binding free energy, -0.11 kcal/mol:
GATAACACGTGTGGGG
TAGGGCACGTGCATGT
AAAGGCACGTGCTTGG

Relative binding free energy, 0.15 kcal/mol:
GATGACACGTGTTTAT
GTGGACACGTGTTTGC
TATATCACGTGGTGAC
CGGGGCACGTGAAGTT
GGGTGCACGTGTTTTT

Relative binding free energy, -0.03 kcal/mol:
ATATGCACGTGTTTCT
TGGGGCACGTGTGCAA

Relative binding free energy, -0.23 kcal/mol:
GGTGGCACGTGGGCAT

Relative binding free energy, 0.13 kcal/mol:
GTTCACACGTGTGCGG
GATGTCACGTGGATGA
TTGAACACGTGTGGGG
TAGTGCACGTGATTGT
ATTGACACGTGAAGGT
AAGGACACGTGTGAGG

Relative binding free energy, -0.06 kcal/mol:
TGACGCACGTGCGGTT
CGTGCCACGTGATGGG
TTATGCACGTGTCTGT
AGTTGCACGTGGGCGA
TGGAGCACGTGTAAGT
ACTAGCACGTGGAGGG

Relative binding free energy, -0.26 kcal/mol:
GTCAGCACGTGGGGGA
TTGCGCACGTGGCTGT
GTCGGCACGTGGGGAG

Relative binding free energy, -0.31 kcal/mol:
GGGGGCACGTGCCGGC

Relative binding free energy, 0.21 kcal/mol:
TCGTTCACGTGGCTGG
GTTTACACGTGTAGGT
CGTTTCACGTGTAGAG
GATGACACGTGGAAGT

Relative binding free energy, 0.02 kcal/mol:
TGGGTCACGTGGCATT
TGTGGCACGTGTGAAC
AGGGCCACGTGGATTA
ACGTGCACGTGTAAGG
GTGCACACGTGTATGT

Relative binding free energy, -0.07 kcal/mol:
CGGTACACGTGTTATG
ATTTCCACGTGGGGTT
TTTGCCACGTGGCGTA
AGTTGCACGTGGTAGA

Relative binding free energy, -0.13 kcal/mol:
CTTGGCACGTGGTATA
TTAGACACGTGGGTGT

Relative binding free energy, 0.16 kcal/mol:
TTGCTCACGTGTTCGT
TGTTGCACGTGATGTA
TAGTTCACGTGGGGCG

Relative binding free energy, -0.01 kcal/mol:
CGGTACACGTGGTTGT
TTGGGCACGTGGATTC
TCGGTCACGTGGATGT
GGGTGCACGTGGAGCG
CGGTACACGTGGATTG
CGATGCACGTGGTCAG

Relative binding free energy, 0.26 kcal/mol:
GCCTTCACGTGTGGGG
TTTTTCACGTGTCTAG
GCAATCACGTGTGGTG

Relative binding free energy, 0.2 kcal/mol:
GTCCTCACGTGTGTGG
GGTTGCACGTGTGAGA
GTGATCACGTGTGATA
TAGTGCACGTGAGTTA
GGTTACACGTGTGTGT
GTATTCACGTGTGATA
CGTTTCACGTGACGTG
GGAAACACGTGAAGGT
TTGCTCACGTGGTGTC

Relative binding free energy, 0.06 kcal/mol:
GGTAGCACGTGGAGCG
TCTGTCACGTGTGTGC
ACGAACACGTGTTGGG
GGATACACGTGTGTGT
GTACTCACGTGGTGGG
AGGTACACGTGGAAGG

Relative binding free energy, 0.35 kcal/mol:
GGGTTCACGTGGTAAC

Relative binding free energy, -0.08 kcal/mol:
TTGAGCACGTGACGGG
TGTCGCACGTGGAGGT
AAGGGCACGTGATATG
TTGGGCACGTGTACAT
GTTCGCACGTGTGTGC
GTGGGCACGTGGTACC

Relative binding free energy, 0.52 kcal/mol:
CTGTTCACGTGAAGGG

Relative binding free energy, 0.01 kcal/mol:
TTGAGCACGTGTGGTG
TAGTACACGTGGCGGG
TTGGCCACGTGTGTAG

Relative binding free energy, 0.27 kcal/mol:
ATTTTCACGTGTAACG
GTATTCACGTGGCATG

Relative binding free energy, 0.08 kcal/mol:
GGGGACACGTGTTAGT
GCCGTCACGTGGTTGT
TATGTCACGTGTCTAG
AGTTACACGTGGTTAA
AAAGTCACGTGGAGAG

Relative binding free energy, 0.03 kcal/mol:
GCTCACACGTGGGGGT
TATGGCACGTGTACAT
CGTTGCACGTGTTGCG

Relative binding free energy, 0.12 kcal/mol:
CGTGTCACGTGTGAGC
AAGATCACGTGCGGTT
TTCGTCACGTGTTTGA
AGGTGCACGTGATTGC
GAATGCACGTGTGTGA
ATGTTCACGTGCTTAA

Relative binding free energy, -0.14 kcal/mol:
CTTAGCACGTGGGTGC
CTTTGCACGTGGTAGA
CTAGGCACGTGGTAGT

Relative binding free energy, 0.24 kcal/mol:
GATCTCACGTGGTTAG
TATCGCACGTGAATTG

Relative binding free energy, -0.05 kcal/mol:
GGGTACACGTGGCGGA
TTTAACACGTGTAGTA

Relative binding free energy, 0.41 kcal/mol:
TTGATCACGTGATGCG

Relative binding free energy, -0.1 kcal/mol:
TTATGCACGTGCATTA
GGGGGCACGTGCAGAT
GGGAGCACGTGTCTGG

Relative binding free energy, 0.19 kcal/mol:
TGTAACACGTGACTGG
TCATGCACGTGAGGCG
TTTGTCACGTGCGTTT
ATGTGCACGTGAGATA
AATATCACGTGTTAGG
TTGGTCACGTGAGTAC

Relative binding free energy, -0.04 kcal/mol:
AGATGCACGTGTAGGA
TGAAACACGTGGGGGA
CGAGGCACGTGTGTGG

Relative binding free energy, -0.09 kcal/mol:
TATAGCACGTGCGAGG
GTGTGCACGTGCTCGT
TCAAGCACGTGGTATG
GTTGGCACGTGGGGAG
ATGGACACGTGGGCGT
TTTAGCACGTGGAGGT
AGTGCCACGTGGGTTA
ACGTGCACGTGTGCTG

Relative binding free energy, 0.38 kcal/mol:
TTTTTCACGTGAATTC

Relative binding free energy, 0.36 kcal/mol:
GTCTTCACGTGATATT

Relative binding free energy, 0.25 kcal/mol:
TCTAACACGTGAGTTG
GTCTTCACGTGGTGTT
GAAATCACGTGCGGTG

Relative binding free energy, -0.27 kcal/mol:
AGTGGCACGTGGCAAG
AAAGGCACGTGGGTTG

Relative binding free energy, 0.17 kcal/mol:
ATGAGCACGTGAGTAT
AGTGCCACGTGAAGTT
CTGGACACGTGGATAT
GATGACACGTGTAGGA
TTGAGCACGTGAGTAT
AGGGGCACGTGAGGAA
CGGGTCACGTGTAATT
TATTTCACGTGGCATA
GCCTACACGTGTGTGG

Relative binding free energy, -0.19 kcal/mol:
ATTGCCACGTGGCGTG

Relative binding free energy, -0.17 kcal/mol:
CGGGACACGTGGGGAT

Relative binding free energy, -0.25 kcal/mol:
GCGAGCACGTGGGTTG
CAGGGCACGTGGGTGT

Relative binding free energy, -0.15 kcal/mol:
ATGGACACGTGGCAGG
AGTTGCACGTGCGATG
ATCTGCACGTGCGTGG
TTGTGCACGTGCATGA

Relative binding free energy, 0.1 kcal/mol:
GGGAACACGTGGCATG
AGGCCCACGTGTTGTA
GTCAACACGTGTAGTT
ATGAACACGTGTGATT
TGCGACACGTGTTGGA
TGCTACACGTGGTAGG

Relative binding free energy, 0.4 kcal/mol:
GAGTTCACGTGGTTAT

Relative binding free energy, 0.07 kcal/mol:
CGATGCACGTGCAGGT
GGGTACACGTGGCAAG
TGATGCACGTGGTTTT
GTAAACACGTGTATGT
GACATCACGTGTTGGG
GGTGACACGTGGGCCG

Relative binding free energy, -0.16 kcal/mol:
ATGGGCACGTGGTTCG
GCGAGCACGTGGGTGC

Relative binding free energy, 0.29 kcal/mol:
GATTTCACGTGGCTGT

Relative binding free energy, 0 kcal/mol:
ATTGTCACGTGGCATT
ATGTGCACGTGTAGGA
ATCAGCACGTGTGGCG
TCGGGCACGTGTATTT
GATGACACGTGGGGAT
TGAGTCACGTGGGGGT
AACTACACGTGGGGGT

Relative binding free energy, -0.24 kcal/mol:
AGGAGCACGTGTAGGG
GGTGGCACGTGGCAGC

Relative binding free energy, 0.04 kcal/mol:
GTTGTCACGTGCATTT
GTTGGCACGTGATCAG
GGTTGCACGTGGATGT
CTTTACACGTGCTTGT
AACGGCACGTGAGGGG
TTTTACACGTGGGGCA

Relative binding free energy, 0.14 kcal/mol:
TGAATCACGTGTCATT
TATGACACGTGATTTA
TGGCACACGTGTTTAG
TAGGACACGTGCGATT
TTATACACGTGATAGT
TTTATCACGTGGGAGC

Relative binding free energy, 0.28 kcal/mol:
AGGGACACGTGAATTG

Relative binding free energy, 0.18 kcal/mol:
GAGTTCACGTGGTGTC
TTCTTCACGTGGGTGT

Relative binding free energy, 0.39 kcal/mol:
GTTCTCACGTGAGTAG

Relative binding free energy, 0.05 kcal/mol:
ATGATCACGTGCGTGT
TTTGTCACGTGATCGA
TTTTGCACGTGACGAG
GGGCGCACGTGTGATG
AAGTCCACGTGTGGTT
TTGATCACGTGGACTG
ACGGACACGTGGAGGT
TTCTACACGTGTGTGG

Relative binding free energy, 0.23 kcal/mol:
CGTATCACGTGTAGTT
CTTGTCACGTGTGAGG

Relative binding free energy, 0.32 kcal/mol:
TATCGCACGTGAATTT
